Assay results as given in the supplement of paper PMC12340641.
Whole data set: some 1,000 compounds, median “relative growth recovery (pomalidomide 10 uM = 100%, DMSO = 0%)” near -1.6, cut for the highest 2% near 21. The list shows a part of the results.

tested on: HEK293FT dCK*-IKZF1; test: relative growth recovery (pomalidomide 10 uM = 100%, DMSO = 0%); higher = more growth rescue (IKZF1 fusion degradation); conditions: compound concentration: 5 uM; AraC concentration: 0.3 uM; overnight pretreatment + 4 days AraC
Protocol: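 Growth recovery screen of the molecular-glue-like (Specs) library. HEK293FT cells expressing a dCK*-IKZF1 fusion (primary) or dCK* alone (counter) were pretreated overnight with compound at 5 uM, then given 0.3 uM AraC for 4 days. Hoechst nuclei were counted by imaging. Primary: normalised to pomalidomide (100%) and DMSO (0%), mean of 2 replicates. Counter: normalised to no-AraC (100%) and AraC+DMSO (0%), single replicate.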

| SMILES | relative growth recovery [%] |
| --- | --- |
| COc1ccccc1C(=O)Nc1ccc(S(=O)(=O)Nc2ncccn2)cc1 | 0.915 |
| O=C(COc1ccc(F)cc1)N1CCC(c2cccc(Nc3nccs3)n2)CC1 | 3.9 |
| Cc1csc(Nc2cccc(C3CCN(C(=O)c4cccnc4)CC3)n2)n1 | 8.94 |
| Cc1ccccc1OCCCC(=O)Nc1ccc(S(=O)(=O)Nc2ncccn2)cc1 | -6 |
| Cc1cc(C)nc(NS(=O)(=O)c2ccc(NC(=S)NC(=O)/C=C/c3ccccc3)cc2)n1 | -1.71 |
| COc1ccc2[nH]c3nc(SCC(=O)Nc4ccc(F)cc4)nnc3c2c1 | -15.4 |
| COc1cc(NS(=O)(=O)c2ccc(NC(=O)CCl)cc2)nc(OC)n1 | -5.68 |
| Cc1csc(Nc2cccc(C3CCCN3C(=O)c3cn4cc(Cl)ccc4n3)n2)n1 (centres undefined) | 11.4 |
| CCN(CC)C(=O)CN1CCOC(c2cccc(Nc3nc(C)c(C)s3)n2)C1 (centres undefined) | 8.94 |
| Cc1csc(Nc2cccc(C3CCCN3C(=O)CCCc3ccc(F)cc3)n2)n1 (centres undefined) | 0.885 |
| Cc1cc(C)nc(NS(=O)(=O)c2ccc(NC(=S)NC(=O)c3ccc(F)c(F)c3)cc2)n1 | -2.13 |
| Cc1ccc(Oc2ccc(N3C(=O)c4ccc(Oc5ccc(N)cc5)cc4C3=O)cc2)cc1C | -8.53 |
| COCc1nc2ccccc2n1CC(=O)N1CCOC(c2cccc(Nc3ncc(C)s3)n2)C1 (centres undefined) | -5.98 |
| Cn1nccc1/C=C/C(=O)N1CCCC(c2csc(Nc3ccccn3)n2)C1 (centres undefined) | 40.9 |
| CCOc1ccccc1C(=O)Nc1ccc(S(=O)(=O)Nc2ccccn2)cc1 | 2.5 |
| Cc1cc(NS(=O)(=O)c2ccc(NC(=O)C(F)(F)F)cc2)nc(C)n1 | -1.77 |
| O=C(O)CCCNc1cccc2c1C(=O)N(C1CCC(=O)NC1=O)C2=O (centres undefined) | 3.32 |
| Cc1csc(Nc2cccc(C3CCN(C(=O)CO)CC3)n2)n1 | 3.58 |
| Cc1cc(C)nc(NS(=O)(=O)c2ccc(NC(=O)c3ccc(F)cc3)cc2)n1 | -0.96 |
| Cc1cnc(Nc2cccc(C3CN(C(=O)C4(c5ccccc5)CC4)CCO3)n2)s1 (centres undefined) | -8.16 |
| CC(=O)N1CCCC(c2csc(Nc3ccccn3)n2)C1 (centres undefined) | -1.67 |
| Cc1csc(Nc2cccc(C3CCCN3CC(N)=O)n2)n1 (centres undefined) | 0.325 |
| CC(Oc1ccc(F)cc1)C(=O)Nc1ccc(S(=O)(=O)Nc2ncccn2)cc1 (centres undefined) | 5.47 |
| Cc1cc(C)nc(NS(=O)(=O)c2ccc(NC(=O)C(C)Oc3ccccc3F)cc2)n1 (centres undefined) | 4.51 |
| COc1cc(NS(=O)(=O)c2ccc(NC(=O)c3ccc(Br)o3)cc2)nc(OC)n1 | 2.29 |

| SMILES | relative growth recovery [%] |
| --- | --- |
| Cc1cnc(Nc2cccc(C3CN(C(=O)CCc4ccc(N(C)C)cc4)CCO3)n2)s1 (centres undefined) | 1.53 |
| Cc1ccc(/C=C/C(=O)Nc2ccc(S(=O)(=O)Nc3nc(C)cc(C)n3)cc2)cc1 | -0.185 |
| CC(C)CC(=O)Nc1ccc(S(=O)(=O)Nc2ncccn2)cc1 | 4.01 |
| Cc1cnc(Nc2cccc(C3CN(C(=O)c4ccccn4)CCO3)n2)s1 (centres undefined) | -0.11 |
| CCCc1cnc(Nc2cccc(C3CCCN(C(=O)C4CCCCC4)C3)n2)s1 (centres undefined) | -2.83 |
| COc1ccc(NS(=O)(=O)c2ccc(NC(=O)c3ccccc3C(=O)O)cc2)nn1 | 0.695 |
| O=C(CSc1nnc2c(n1)[nH]c1ccccc12)Nc1cccc(Cl)c1 | -17.9 |
| Cc1cc(C)nc(NS(=O)(=O)c2ccc(N3C(=O)c4ccccc4C3=O)cc2)n1 | 1.18 |
| CC(=O)Nc1ccc(S(=O)(=O)Nc2cc(C)ccn2)cc1 | 1.54 |
| CCCCc1cnc(Nc2cccc(C3CCN(C(=O)[C@@H]4CCCN4C(=O)OC(C)(C)C)CC3)n2)s1 | -2.56 |
| O=C(O)CCCCCNc1cccc2c1C(=O)N(C1CCC(=O)NC1=O)C2=O (centres undefined) | 11.1 |
| Cc1cc(C)nc(NS(=O)(=O)c2ccc(NC(=O)c3ncoc3-c3cccs3)cc2)n1 | 3.04 |
| CCC(=O)N1CCCC1c1csc(Nc2ccccn2)n1 (centres undefined) | -6.07 |
| COc1ccc(/C=C/C(=O)Nc2ccc(S(=O)(=O)Nc3cc(C)nc(C)n3)cc2)cc1OC | -1.51 |
| Cc1cnc(Nc2cccc(C3CCN(C(=O)C45CC6CC(CC(C6)C4)C5)CC3)n2)s1 | 1.16 |
| CN(CC(=O)N1CCOC(c2cccc(Nc3nccs3)n2)C1)Cc1ccccc1F (centres undefined) | 3.1 |
| Cc1ccc(CCC(=O)Nc2ccc(S(=O)(=O)Nc3nc(C)cc(C)n3)cc2)cc1 | -1.52 |
| Cc1csc(Nc2cccc(C3CCCN3C(=O)COc3c(C)cccc3C)n2)n1 (centres undefined) | -1.58 |
| Cc1csc(Nc2cccc(CC3CCN(CC(=O)N(C)C)CC3)n2)n1 | 4.04 |
| Cc1onc(-c2ccccc2)c1C(=O)Nc1ccc(S(=O)(=O)Nc2ncccn2)cc1 | -15.9 |
| COc1ccc(OCCCC(=O)Nc2ccc(S(=O)(=O)Nc3ncccn3)cc2)cc1 | -3.56 |
| O=C(CN1C(=O)C2CCCCC2C1=O)Nc1ccc(S(=O)(=O)Nc2ncccn2)cc1 (centres undefined) | -0.23 |
| Cc1csc(Nc2cccc(C3CCN(C(=O)C4CC=CCC4)CC3)n2)n1 (centres undefined) | -3.74 |
| Cc1csc(Nc2cccc(C3CCN(C(=O)c4nccc5ccccc45)CC3)n2)n1 | -0.34 |
